In publication PMC7383879, “HSI2/VAL1 and HSL1/VAL2 function redundantly to repress DOG1 expression in Arabidopsis seeds and seedlings”:
Results are given in words; binding and its absence hold for the method and conditions named. Binding seen in cells or lysates may run through a third protein. Some results given as binding are weak or reduced against the parent protein; the word gives no strength. Where a sequence is shown, tags or fusion partners need not be part of it. Blank lines part the entries; values can stand above or below the binder they belong to.

Key:
[1] = molecular target: T1, HIGH‐LEVEL EXPRESSION OF SUGAR INDUCIBLE2 (HSI2), BiFC fusion (Arabidopsis thaliana) (UniProt Q8W4L5); experiment: split reporter; BiFC: nEYFP and cEYFP fusions, Agrobacterium GV2260 co-infiltrated into tobacco (N. benthamiana) leaves; YFP fluorescence by confocal microscopy after 2 d
T1 sequence: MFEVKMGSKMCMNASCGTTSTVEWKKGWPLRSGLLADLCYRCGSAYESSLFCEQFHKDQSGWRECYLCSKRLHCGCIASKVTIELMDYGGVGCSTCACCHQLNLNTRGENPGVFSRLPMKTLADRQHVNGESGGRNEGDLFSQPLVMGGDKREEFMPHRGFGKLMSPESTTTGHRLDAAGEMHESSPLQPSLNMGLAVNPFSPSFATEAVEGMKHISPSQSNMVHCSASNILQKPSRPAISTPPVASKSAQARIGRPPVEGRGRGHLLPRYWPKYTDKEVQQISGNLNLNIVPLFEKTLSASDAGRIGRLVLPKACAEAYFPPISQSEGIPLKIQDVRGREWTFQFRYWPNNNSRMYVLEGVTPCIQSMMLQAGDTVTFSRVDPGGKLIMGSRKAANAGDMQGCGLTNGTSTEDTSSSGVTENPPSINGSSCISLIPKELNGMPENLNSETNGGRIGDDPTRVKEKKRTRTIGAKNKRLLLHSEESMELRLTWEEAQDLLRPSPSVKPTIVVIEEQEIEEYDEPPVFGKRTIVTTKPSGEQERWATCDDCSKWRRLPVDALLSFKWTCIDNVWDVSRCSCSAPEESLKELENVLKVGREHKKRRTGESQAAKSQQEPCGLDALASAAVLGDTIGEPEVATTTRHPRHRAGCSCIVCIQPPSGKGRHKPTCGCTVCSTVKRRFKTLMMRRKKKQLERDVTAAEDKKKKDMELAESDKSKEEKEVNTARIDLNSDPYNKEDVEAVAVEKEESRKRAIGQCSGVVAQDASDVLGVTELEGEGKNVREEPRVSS

[2] = molecular target: T2, HSI2‐LIKE1 (HSL1), BiFC fusion (Arabidopsis thaliana) (UniProt Q5CCK4); experiment: as above
T2 sequence: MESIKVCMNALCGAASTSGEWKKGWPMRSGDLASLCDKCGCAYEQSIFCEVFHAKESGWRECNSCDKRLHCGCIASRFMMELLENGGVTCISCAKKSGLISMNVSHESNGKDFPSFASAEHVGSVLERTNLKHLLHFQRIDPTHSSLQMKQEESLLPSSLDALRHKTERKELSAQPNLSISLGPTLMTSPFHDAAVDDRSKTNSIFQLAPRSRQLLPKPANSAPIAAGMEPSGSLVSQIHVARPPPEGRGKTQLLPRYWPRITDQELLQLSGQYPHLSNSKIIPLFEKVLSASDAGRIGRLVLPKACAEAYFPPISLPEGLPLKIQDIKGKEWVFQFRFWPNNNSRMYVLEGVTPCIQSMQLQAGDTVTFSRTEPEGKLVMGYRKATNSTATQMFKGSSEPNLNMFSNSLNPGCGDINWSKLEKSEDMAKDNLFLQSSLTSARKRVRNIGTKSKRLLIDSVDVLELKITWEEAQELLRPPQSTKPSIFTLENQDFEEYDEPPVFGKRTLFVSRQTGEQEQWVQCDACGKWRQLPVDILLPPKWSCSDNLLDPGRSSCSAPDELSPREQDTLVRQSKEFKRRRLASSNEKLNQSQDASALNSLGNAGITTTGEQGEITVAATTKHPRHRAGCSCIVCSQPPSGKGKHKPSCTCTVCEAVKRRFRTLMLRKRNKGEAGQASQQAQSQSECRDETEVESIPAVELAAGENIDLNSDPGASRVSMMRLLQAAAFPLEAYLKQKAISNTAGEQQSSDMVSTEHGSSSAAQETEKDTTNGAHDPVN

[3] = molecular target: T3, HSL1‐GFP (35S:HSL1‐GFP) for co-immunoprecipitation (Arabidopsis thaliana) (UniProt Q5CCK4); experiment: co-IP; total protein of agroinfiltrated tobacco leaves (50 mM Tris-HCl pH 7.5, 150 mM NaCl, 2 mM EDTA, 10% glycerol, 1% Triton X-100); anti-GFP mAb-magnetic beads overnight at 4°C; immunoblot with anti-myc
T3 sequence: T2 sequence

[4] = molecular target: T4, HSI2‐GFP (35S:HSI2‐GFP) for co-immunoprecipitation (Arabidopsis thaliana) (UniProt Q8W4L5); experiment: as above
T4 sequence: T1 sequence

B1: LIKE HETEROCHROMATIN PROTEIN1 (LHP1), BiFC fusion (protein, UniProt Q946J8 1-445)
chain: MKGASGAVKKKPQVLNEAGEAETAVETVGESRKISGDGGFGSDDGGGGGGGGSGESILREIGDDRPTEDGDEEEEEDEDEDDGGDEEDEEGEGEGGQEERPKLDEGFYEIEAIRRKRVRKGKVQYLIKWRGWPETANTWEPLENLQSIADVIDAFEGSLKPGKPGRKRKRKYAGPHSQMKKKQRLTSTSHDATEKSDSSTSLNNSSLPDIPDPLDLSGSSLLNRDVEAKNAYVSNQVEANSGSVGMARQVRLIDNEKEYDPTLNELRGPVNNSNGAGCSQGGGIGSEGDNVRPNGLLKVYPKELDKNSRFIGAKRRKSGSVKRFKQDGSTSNNHTAPTDQNLTPDLTTLDSFGRIARMGNEYPGVMENCNLSQKTKIEELDITKILKPMSFTASVSDNVQEVLVTFLALRSDGKEALVDNRFLKAHNPHLLIEFYEQHLKYNRTP
binding [1]: binds | binding [2]: binds

B2: LHP1‐myc (35S:LHP1‐myc) for co-immunoprecipitation (protein, UniProt Q946J8 1-445)
chain: B1 chain
binding [3]: binds | binding [4]: binds

B4: HSI2‐LIKE1 (HSL1), BiFC fusion (protein, UniProt Q5CCK4 1-780)
chain: T2 sequence
binding [2]: binds

Now from value to binder:

binding [1]: binds | binding [2]: binds
B3: CURLY LEAF (CLF), BiFC fusion (protein, UniProt P93831 1-902)
chain: MASEASPSSSATRSEPPKDSPAEERGPASKEVSEVIESLKKKLAADRCISIKKRIDENKKNLFAITQSFMRSSMERGGSCKDGSDLLVKRQRDSPGMKSGIDESNNNRYVEDGPASSGMVQGSSVPVKISLRPIKMPDIKRLSPYTTWVFLDRNQRMTEDQSVVGRRRIYYDQTGGEALICSDSEEEAIDDEEEKRDFLEPEDYIIRMTLEQLGLSDSVLAELASFLSRSTSEIKARHGVLMKEKEVSESGDNQAESSLLNKDMEGALDSFDNLFCRRCLVFDCRLHGCSQDLIFPAEKPAPWCPPVDENLTCGANCYKTLLKSGRFPGYGTIEGKTGTSSDGAGTKTTPTKFSSKLNGRKPKTFPSESASSNEKCALETSDSENGLQQDTNSDKVSSSPKVKGSGRRVGRKRNKNRVAERVPRKTQKRQKKTEASDSDSIASGSCSPSDAKHKDNEDATSSSQKHVKSGNSGKSRKNGTPAEVSNNSVKDDVPVCQSNEVASELDAPGSDESLRKEEFMGETVSRGRLATNKLWRPLEKSLFDKGVEIFGMNSCLIARNLLSGFKSCWEVFQYMTCSENKASFFGGDGLNPDGSSKFDINGNMVNNQVRRRSRFLRRRGKVRRLKYTWKSAAYHSIRKRITEKKDQPCRQFNPCNCKIACGKECPCLLNGTCCEKYCGCPKSCKNRFRGCHCAKSQCRSRQCPCFAADRECDPDVCRNCWVIGGDGSLGVPSQRGDNYECRNMKLLLKQQQRVLLGISDVSGWGAFLKNSVSKHEYLGEYTGELISHKEADKRGKIYDRENCSFLFNLNDQFVLDAYRKGDKLKFANHSPEPNCYAKVIMVAGDHRVGIFAKERILAGEELFYDYRYEPDRAPAWAKKPEAPGSKKDENVTPSVGRPKKLA

binding [1]: binds | binding [2]: binds
B5: HIGH‐LEVEL EXPRESSION OF SUGAR INDUCIBLE2 (HSI2), BiFC fusion (protein, UniProt Q8W4L5 1-790)
chain: T1 sequence
